# Data reported in the supplement of paper PMC4604168 (melanoma cell lines).
# Some of the results follow. Most values come without repeats; read them as rough.
# What was measured:
# Assay in all cases: cell count relative to DMSO control; melanoma cells; higher = more viable cells
# [1] = tested on: MZ2-MEL; conditions: library dose: low library concentration; 72 h
# [2] = tested on: MeWo; conditions: library dose: low library concentration; 72 h
# [3] = tested on: RPMI7951; conditions: library dose: low library concentration; 72 h
# [4] = tested on: RVH-421; conditions: library dose: low library concentration; 72 h
# [5] = tested on: SkMel28; conditions: library dose: low library concentration; 72 h
# [6] = tested on: SkMel30; conditions: library dose: low library concentration; 72 h
# [7] = tested on: UACC62; conditions: library dose: low library concentration; 72 h
# [8] = tested on: WM115; conditions: library dose: low library concentration; 72 h
# [9] = tested on: WM1716; conditions: library dose: low library concentration; 72 h
# [10] = tested on: WM1745; conditions: library dose: low library concentration; 72 h
# [11] = tested on: WM3526; conditions: library dose: low library concentration; 72 h
# [12] = tested on: WM3619; conditions: library dose: low library concentration; 72 h
# [13] = tested on: WM451Lu; conditions: library dose: low library concentration; 72 h
# [14] = tested on: SkMel2; conditions: library dose: low library concentration; 72 h
# [15] = tested on: SkMel5; conditions: library dose: low library concentration; 72 h
# [16] = tested on: UACC257; conditions: library dose: low library concentration; 72 h
# [17] = tested on: 501Mel; conditions: library dose: standard library concentration; 72 h
# [18] = tested on: A101D; conditions: library dose: standard library concentration; 72 h
# [19] = tested on: A2058; conditions: library dose: standard library concentration; 72 h
# [20] = tested on: A375; conditions: library dose: standard library concentration; 72 h
compound,measurement,setting,value
"CCN(CC)CCNC(=O)c1c(C)[nH]c(/C=C2\C(=O)Nc3ccc(F)cc32)c1C [sunitinib] + CO[C@H]1C[C@@H]2CC[C@@H](C)[C@@](O)(O2)C(=O)C(=O)N2CCCC[C@H]2C(=O)O[C@H]([C@H](C)C[C@@H]2CC[C@@H](OCCO)[C@H](OC)C2)CC(=O)[C@H](C)/C=C(\C)[C@@H](O)[C@@H](OC)C(=O)[C@H](C)C[C@H](C)/C=C/C=C/C=C/1C [everolimus] (first compound 0.4 µM, partner dose 0.02 µM)",cell count,[1],77%
same,cell count,[2],58.6%
same,cell count,[3],90.6%
same,cell count,[4],71.6%
same,cell count,[5],59.7%
same,cell count,[6],50.5%
same,cell count,[7],48.4%
same,cell count,[8],88.6%
same,cell count,[9],86.4%
same,cell count,[10],73.8%
same,cell count,[11],62.4%
same,cell count,[12],68%
same,cell count,[13],61.4%
"Cn1cnc2c(F)c(Nc3ccc(Br)cc3Cl)c(C(=O)NOCCO)cc21 [selumetinib] + C=CCNC1=C2C[C@@H](C)C[C@H](OC)[C@H](O)[C@@H](C)/C=C(\C)[C@H](OC(N)=O)[C@@H](OC)/C=C\C=C(/C)C(=O)NC(=CC1=O)C2=O [Tanespimycin] (first compound 0.015 µM, partner dose 0.002 µM)",cell count,[2],89.4%
same,cell count,[3],108%
same,cell count,[4],65.1%
same,cell count,[5],81.2%
same,cell count,[6],55.9%
same,cell count,[7],59%
same,cell count,[8],78.8%
same,cell count,[9],103%
same,cell count,[10],90.5%
same,cell count,[11],70.6%
same,cell count,[12],79.9%
same,cell count,[13],93%
"COc1cc([C@@H]2c3cc4c(cc3[C@@H](O[C@@H]3O[C@@H]5CO[C@@H](C)O[C@H]5[C@H](O)[C@H]3O)[C@H]3COC(=O)[C@H]23)OCO4)cc(OC)c1O [etoposide] + COc1ccc2c(c1)CCC1C2CCC2(C)C(NCCCCCCN3C(=O)C=CC3=O)CCC12 [U73122] (first compound 0.02 µM, partner dose 0.4 µM)",cell count,[1],90.5%
same,cell count,[2],87%
same,cell count,[3],99.3%
same,cell count,[5],102%
same,cell count,[14],92.4%
same,cell count,[6],92.4%
same,cell count,[15],89.2%
same,cell count,[16],71.6%
same,cell count,[7],74.8%
same,cell count,[8],90.1%
same,cell count,[9],88%
same,cell count,[10],84.5%
same,cell count,[11],96.6%
same,cell count,[12],85.7%
same,cell count,[13],101%
"Cn1cnc2c(F)c(Nc3ccc(Br)cc3Cl)c(C(=O)NOCCO)cc21 [selumetinib] + COCC[n+]1c2c(n(Cc3cnccn3)c1C)C(=O)c1ccccc1C2=O [YM155] (first compound 0.015 µM, partner dose 0.0004 µM)",cell count,[1],72.1%
same,cell count,[2],87.9%
same,cell count,[3],88.2%
same,cell count,[4],69.6%
same,cell count,[5],82.6%
same,cell count,[6],82.9%
same,cell count,[7],84.2%
same,cell count,[8],91.5%
same,cell count,[9],94.9%
same,cell count,[10],108%
same,cell count,[11],82.8%
same,cell count,[12],79.3%
same,cell count,[13],77.7%
"C[C@]1(O)C[C@@H](c2nc(-c3ccc4ccc(-c5ccccc5)nc4c3)c3c(N)nccn32)C1 + Cn1c(Nc2ccc(C(F)(F)F)cc2)nc2cc(Oc3ccnc(-c4ncc(C(F)(F)F)[nH]4)c3)ccc21 [CHIR265] (first compound 0.4 µM, partner dose 0.08 µM)",cell count,[1],60.5%
same,cell count,[2],66.2%
same,cell count,[3],57%
same,cell count,[4],78.5%
same,cell count,[5],60.4%
same,cell count,[14],63.5%
same,cell count,[6],57.1%
same,cell count,[7],53.4%
same,cell count,[8],66.3%
same,cell count,[9],90%
same,cell count,[10],56.2%
same,cell count,[11],58.2%
same,cell count,[12],70.4%
same,cell count,[13],101%
"CCN(CC)CCNC(=O)c1c(C)[nH]c(/C=C2\C(=O)Nc3ccc(F)cc32)c1C [sunitinib] + c1cc(-c2cnn3cc(-c4ccc(OCCN5CCCCC5)cc4)cnc23)ccn1 [Dorsomorphin] (first compound 2 µM, partner dose 2 µM)",cell count,[17],32.6%
same,cell count,[18],66.4%
same,cell count,[19],58.6%
same,cell count,[20],106%
"C[C@]1(O)C[C@@H](c2nc(-c3ccc4ccc(-c5ccccc5)nc4c3)c3c(N)nccn32)C1 + COc1ccc(COc2ccc(Cc3cnc(N)nc3N)cc2OC)cc1 [GW2580] (first compound 2 µM, partner dose 5 µM)",cell count,[17],54.7%
same,cell count,[18],83.7%
same,cell count,[19],79.5%
same,cell count,[20],76.6%
"COc1cc([C@@H]2c3cc4c(cc3[C@@H](O[C@@H]3O[C@@H]5CO[C@@H](C)O[C@H]5[C@H](O)[C@H]3O)[C@H]3COC(=O)[C@H]23)OCO4)cc(OC)c1O [etoposide] + COc1cc(N2CCC(N3CCN(C)CC3)CC2)ccc1Nc1ncc(Cl)c(Nc2ccccc2S(=O)(=O)C(C)C)n1 [NVP-TAE684] (first compound 0.1 µM, partner dose 0.4 µM)",cell count,[17],115%
same,cell count,[18],95.4%
same,cell count,[19],49.6%
same,cell count,[20],77.4%
"C[C@]1(O)C[C@@H](c2nc(-c3ccc4ccc(-c5ccccc5)nc4c3)c3c(N)nccn32)C1 + O=c1cc(-c2cccc3c2Sc2ccccc2S3)oc(N2CCOCC2)c1 [KU55933] (first compound 2 µM, partner dose 5 µM)",cell count,[17],80.1%
same,cell count,[18],75.4%
same,cell count,[19],87.1%
same,cell count,[20],88.2%
"COc1cc([C@@H]2c3cc4c(cc3[C@@H](O[C@@H]3O[C@@H]5CO[C@@H](C)O[C@H]5[C@H](O)[C@H]3O)[C@H]3COC(=O)[C@H]23)OCO4)cc(OC)c1O [etoposide] + COc1cc2ncnc(Nc3ccc(Oc4ccccc4)cc3)c2cc1OC [SrcI1] (first compound 0.1 µM, partner dose 10 µM)",cell count,[17],76.4%
same,cell count,[18],87.2%
same,cell count,[19],73.4%
same,cell count,[20],107%
"CCN(CC)CCNC(=O)c1c(C)[nH]c(/C=C2\C(=O)Nc3ccc(F)cc32)c1C [sunitinib] + COc1ccc(-c2ccc3c(N4CCOCC4)nc(N4C[C@@H](C)O[C@@H](C)C4)nc3n2)cc1CO [KU0063794] (first compound 2 µM, partner dose 0.1 µM)",cell count,[17],38.5%
same,cell count,[18],62.9%
same,cell count,[19],59.8%
same,cell count,[20],92.3%
"COc1cc([C@@H]2c3cc4c(cc3[C@@H](O[C@@H]3O[C@@H]5CO[C@@H](C)O[C@H]5[C@H](O)[C@H]3O)[C@H]3COC(=O)[C@H]23)OCO4)cc(OC)c1O [etoposide] + COc1ccc(COc2ccc(Cc3cnc(N)nc3N)cc2OC)cc1 [GW2580] (first compound 0.1 µM, partner dose 5 µM)",cell count,[17],65.8%
same,cell count,[18],89.6%
same,cell count,[19],103%
same,cell count,[20],69.7%
"C[C@]1(O)C[C@@H](c2nc(-c3ccc4ccc(-c5ccccc5)nc4c3)c3c(N)nccn32)C1 + COc1cc(N2CCC(N3CCN(C)CC3)CC2)ccc1Nc1ncc(Cl)c(Nc2ccccc2S(=O)(=O)C(C)C)n1 [NVP-TAE684] (first compound 2 µM, partner dose 0.4 µM)",cell count,[17],66.6%
same,cell count,[18],87.2%
same,cell count,[19],85.7%
same,cell count,[20],118%
"C[C@]1(O)C[C@@H](c2nc(-c3ccc4ccc(-c5ccccc5)nc4c3)c3c(N)nccn32)C1 + CC(C)CCN1c2nc(Nc3cc(F)c(O)c(F)c3)ncc2N(C)C(=O)C1C [BID1870] (first compound 2 µM, partner dose 1 µM)",cell count,[17],51.1%
same,cell count,[18],68.2%
same,cell count,[19],87.7%
same,cell count,[20],88.4%
"C[C@]1(O)C[C@@H](c2nc(-c3ccc4ccc(-c5ccccc5)nc4c3)c3c(N)nccn32)C1 + O=S(=O)(c1ccccc1)N(CC(F)(F)F)c1ccc(C(O)(C(F)(F)F)C(F)(F)F)cc1 [T0901317] (first compound 2 µM, partner dose 7 µM)",cell count,[17],49%
same,cell count,[18],103%
same,cell count,[19],113%
same,cell count,[20],94.8%
